The assay addresses T1, human VEGF165 (human, UniProt P15692-4 27-191).
T1 construct: This is the VEGF found in the aflibercept:VEGF complex measured in participants' plasma, and in the VEGF:aflibercept ELISA calibration standards; also called endogenous VEGF
T1 sequence (looked up): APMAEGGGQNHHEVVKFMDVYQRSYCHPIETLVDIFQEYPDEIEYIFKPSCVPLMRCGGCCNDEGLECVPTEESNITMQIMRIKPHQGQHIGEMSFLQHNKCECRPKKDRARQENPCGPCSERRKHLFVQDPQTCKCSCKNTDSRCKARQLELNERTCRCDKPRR
Description: validated ELISA for bound aflibercept (VEGF:aflibercept complex) in plasma of trial participants, calibrated with VEGF:aflibercept standards.

Here are results for 1 molecule from patent EP4799608A2 (Regeneron Pharmaceuticals, Inc., dated 2026).

B1: aflibercept (Fc fusion)
chain: SDTGRPFVEMYSEIPEIIHMTEGRELVIPCRVTSPNITVTLKKFPLDTLIPDGKRIIWDSRKGFIISNATYKEIGLLTCEATVNGHLYKTNYLTHRQTNTIIDVVLSPSHGIELSVGEKLVLNCTARTELNVGIDFNWEYPSSKHQHKKLVNRDLKTQSGSEMKKFLSTLTIDGVTRSDQGLYTCAASSGLMTKKNSTFVRVHEK[left out - human IgG1 Fc]
notes: Homodimer of two fusion polypeptides; also called VEGF Trap; VEGF-Trap
On to B1, for which the binding result is given as “binds”.
